# From PubChem BioAssay AID1240 (Sanford-Burnham Center for Chemical Genomics, 2008)
# About 800 (1.6%) of roughly 50,000 compounds showed an effect of 50% or more. This is one part of the list.
# Molecular target: Bcl-2-like protein 10 (Homo sapiens) (UniProt Q9HD36)
# Assay: TR3 peptide-Bcl-B binding displacers, biochemical primary FP assay, phenotype converters (AID 1240);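 note: 0% = Bcl-B with tracer peptide and DMSO and 100% = tracer peptide lacking Bcl-B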
# Settings: GST-Bcl-B / FITC-TR3 peptide fluorescence polarization; stronger effect = higher value; compound at 3.75 mg/L
# Chain of UniProt Q9HD36 (Q9HD36 whole entry, looked up): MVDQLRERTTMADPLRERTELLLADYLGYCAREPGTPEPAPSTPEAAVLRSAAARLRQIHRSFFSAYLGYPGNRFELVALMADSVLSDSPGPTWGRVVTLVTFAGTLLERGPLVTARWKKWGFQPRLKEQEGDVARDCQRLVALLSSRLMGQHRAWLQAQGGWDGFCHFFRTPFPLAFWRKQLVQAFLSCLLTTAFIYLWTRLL
row,Compound,displacement [%]
1,COc1ccc(C2SCCN2S(=O)(=O)c2ccc(C)cc2)cc1 (stereo not given),13.4
2,CCOC(=O)c1c(NC(=O)/C=C/c2ccc3c(c2)OCO3)sc(C(C)=O)c1C,7.7
3,COC(=O)c1c(N)sc(C(=O)Nc2ccccc2OC)c1C,1.7
4,COc1ccc(C2/C(=C(\O)c3ccc(C)cc3)C(=O)C(=O)N2CCCC(=O)O)cc1 (stereo not given),2.7
5,CCN(CC)S(=O)(=O)c1ccc(NC(=O)COc2ccc(Cl)cc2)cc1,2.7
6,Cc1cc(/C=N/O)c(C)c(COCc2cc(C)cc(/C=N/O)c2C)c1,-0.7
7,O=C(O)C1CCCCC1C(=O)NCc1ccccc1 (stereo not given),1.1
8,Cc1ccc(C(=O)N/C(=C\c2ccc(-c3cc(Cl)ccc3Cl)o2)C(=O)NCc2ccco2)cc1,-92.2
9,CC(C)OP(=O)(OC(C)C)C(Nc1cccc(N)c1)c1cccc(N)c1 (stereo not given),-4.6
10,O=C(O)c1cccc(N2C(=O)c3cc4ccccc4c(-c4ccccc4)c3C2=O)c1,2.7
11,N#C/C(=C\c1ccc(-c2cccc(Cl)c2)o1)c1ccccc1,-6.4
12,COc1cc(C2Nc3ccccc3NC3=C2C(=O)CC(c2ccc4c(c2)OCO4)C3)cc(OC)c1O (stereo not given),9.5
13,Cc1ccc(/C=C/C(=O)Nc2ccc(Br)cc2)o1,11.8
14,COc1ccc(OC)c(NC(=O)C(=O)NCc2ccc(C)cc2)c1,-6.1
15,CCOc1ccccc1/C=N\N1CCN(c2ccccc2OC)CC1,1.1
16,O=C(NN1C(=O)c2ccccc2C1=O)c1ccc2c(c1)C(=O)N(c1ccc(Sc3ccc([N+](=O)[O-])cc3)cc1)C2=O,15.7
17,O=C(/C=C/c1cccc(C(F)(F)F)c1)Nc1ccc(Br)cc1,16.9
18,CN1CCN(C(=O)c2cnn(-c3ccccc3)c2NC(=O)c2ccc(Br)cc2)CC1,-5.1
19,COc1ccc(C(NS(=O)(=O)c2ccc3ccccc3c2)c2ccccc2)cc1 (stereo not given),-16.2
20,O=C(c1ccccc1)N1CCN(C(=O)c2cnn3c2NC(c2ccc(Br)cc2)CC3C(F)(F)F)CC1 (stereo not given),11
21,Cc1ccc2nc(/C(C#N)=C\c3cc(Br)ccc3OC(C)C)[nH]c2c1,13.1
22,CC(=O)N(CCC(c1ccccc1)C1CCOC(C)(C)C1)Cc1ccccc1 (stereo not given),-14.6
23,COc1cccc(NC(=O)c2cc(-c3ccc(OC)c(OC)c3)nc3ccccc23)c1,9.6
24,O=C1CSC(c2ccccc2)N1CCN1CCCCC1 (stereo not given),-42.9
25,Cc1cc(/C=N\NC(=O)c2cc3ccccc3cc2O)c(C)n1-c1ccccc1,21.7
26,COc1cccc(/C=C2/C(=O)NC(=O)N(c3ccc(Br)cc3)C2=O)c1O,10.7
27,NC(=O)c1cc(NC(=O)c2cc3ccccc3cc2O)ccc1Cl,8.4

row,Compound,displacement [%]
1,Cc1ccc(S(=O)(=O)N2CCN(c3ccc([N+](=O)[O-])c(N4CCOCC4)c3)CC2)cc1,7.1
2,O=C(O)CCCCCN1C(=O)C(=O)/C(=C(/O)c2ccccc2)C1c1ccccc1 (stereo not given),2.1
3,O=[N+]([O-])c1ccccc1N[C@@H]1OC[C@@H](O)[C@H](O)[C@H]1O,-3.5
4,CC1=C(C(=O)OCC(C)C)C(c2ccc(Br)cc2)NC(=O)N1 (stereo not given),3.3
5,Cc1ccc(C(C)C)c(OCC(=O)Nc2cccc3nsnc23)c1,23.7
6,CC1=NN(c2ccc(S(N)(=O)=O)cc2)C(=O)/C1=C\c1ccc(C(C)C)cc1,3.4
7,O=C(O)c1ccccc1N1C(=O)c2ccc(Oc3ccc([N+](=O)[O-])cc3)cc2C1=O,-8.6
8,Cc1ccc(NC(=O)COc2ccccc2Cl)c(C(=O)O)c1,11.9
9,COc1ccc(CCN2C(=O)CC(NCCc3ccc(S(N)(=O)=O)cc3)C2=O)cc1OC (stereo not given),-2.6
10,O=C(c1ccccc1Cl)N1CCN(c2ccc(Cl)cc2[N+](=O)[O-])CC1,15.5
11,Cc1ccc(OCCCNC(C)(C)C)cc1C,5.9
12,COc1ccc(C2CC(C(F)(F)F)n3nc(C(=O)Nc4cccnc4)cc3N2)cc1 (stereo not given),0.5
13,CCOc1ccc2c(c1)-c1c(ssc1=S)C(C)(C)N2C(=O)c1cccnc1,10.9
14,Nn1cnnc1N/N=C/c1ccc(O)cc1O,-9
15,O=C(NC(=S)Nc1ccc(Cl)cc1)c1ccccc1,3.9
16,CCOc1ccc(S(=O)(=O)N(CC(=O)N2CCc3ccccc3C2)c2ccc(C)cc2)cc1,-4.6
17,Cc1ccc(-c2cc(C(F)(F)F)n3nc(C(=O)OC(C)C)cc3n2)cc1,10.8
18,O=C(O)/C=C\C(=O)NN=C(c1ccccc1)c1ccccc1,14.3
19,COc1ccc(-c2nc(-c3ccc(O)cc3)[nH]c2-c2ccc(OC)cc2)cc1,18.1
20,CCOC(=O)c1sc(NC(=O)/C=C/c2cccc([N+](=O)[O-])c2)c(C(=O)OCC)c1C,7.2
21,COc1ccc(C(=O)N2c3ccccc3C(N(C(=O)c3cccs3)c3ccccc3)CC2C)cc1 (stereo not given),16.7
22,Cc1onc(-c2c(Cl)cccc2Cl)c1C(=O)NCc1ccncc1,15
23,C=CCSC1=C(C#N)C(c2ccco2)C(C(=O)Nc2ccccc2OC)=C(C)N1 (stereo not given),-21.8
24,Cc1ccc(N2C(=O)CC(NCc3cccc(C(F)(F)F)c3)C2=O)cc1 (stereo not given),0.1
25,C(=C\c1ccccc1)/C1=Nc2ccccc2NC(c2ccccc2)C1 (stereo not given),0.8
26,Cc1ccc(NC(=O)c2ccccc2N(Cc2ccccc2)S(C)(=O)=O)cc1Cl,3.3
27,N#Cc1cccc(N=Cc2ccc(OCc3ccccc3)cc2)c1,-7.8

row,Compound,displacement [%]
1,CCOC(=O)COc1ccc2oc(C)c(C(=O)OC)c2c1,8.5
2,CCOC(=O)c1ccc(N2C(=O)C3C(c4ccc(Cl)cc4)OC4(C(=O)c5ccccc5C4=O)C3C2=O)cc1 (stereo not given),-9.8
3,CN(C)Cc1c(O)ccc2cc(-c3nc4ccccc4s3)c(=O)oc12,110
4,Nc1ccc(S(=O)(=O)Nc2nccc(/C=C/c3cccc(Cl)c3)n2)cc1,-22.7
5,Cc1cc(N2CCN(c3ccccc3)CC2)nc(-c2ccc(Br)cc2)n1,9.6
6,COc1cccc(/C=C2\SC(=S)N(CCC(=O)O)C2=O)c1,12.7
7,Cc1ccc(Cl)cc1NC(=O)C1CCCC1,0.4
8,O=[N+]([O-])c1ccc(S(=O)(=O)NC2c3ccccc3Oc3ccccc32)cc1,-0.6
9,CCOC(=O)c1ccc(NC(=O)CN(c2ccc(F)cc2)S(=O)(=O)c2ccccc2)cc1,-7.4
10,Cc1cccc(Nc2nnc(-c3ccc(C(=O)NCCO)cc3)c3ccccc23)c1,3.5
11,COC(=O)c1c(NC(=O)CN2C(=O)c3ccccc3C2=O)sc2c1C(C(=O)OC)CC2 (stereo not given),-0.7
12,Cn1c(CNc2ccc(O)cc2)nc2ccccc21,76.7
13,COc1ccccc1NC(=O)c1ccc(Br)o1,1
14,S=C1NC(c2ccccc2)=NCN1c1ccccc1,1.8
15,Cc1cc(Cl)ccc1NC(=O)c1ccc(CN(c2ccccc2)S(C)(=O)=O)cc1,-4.5
16,CCc1ccc(OCC(=O)Nc2ccc(OC(F)(F)F)cc2)cc1,1.4
17,COc1cccc(C(=O)Nc2nc3ccc(S(C)(=O)=O)cc3s2)c1,-11.5
18,Cc1nc2ccccn2c1C(=O)N/N=C\c1ccc(OCc2ccc(Cl)cc2)cc1,8.8
19,Cc1ccc(OCCOCCOc2ccc(/C=c3\sc4nc5ccccc5n4c3=O)cc2)cc1,-1
20,COc1ccc(NC(=O)CN(c2cc(OC)ccc2OC)S(C)(=O)=O)cc1,13.1
21,COc1ccccc1NC(=O)c1ccc(C(=O)c2c(C)cc(C)cc2C)cc1,5.1
22,COc1ccccc1NS(=O)(=O)c1ccc(Br)cc1,0.6
23,COc1cc(OC)cc(C(=O)Nc2cccc(-c3nc4ccccc4s3)c2)c1,23.1
24,CNc1oc(-c2ccccc2)nc1S(=O)(=O)c1ccccc1,-7.9
25,Cc1ccc(N2C(=O)C(Cl)=C(NCCc3ccccc3)C2=O)c(C)c1,3
26,COc1ccc(C2CC(C(F)(F)F)n3nc(C(=O)N4CCN(Cc5ccccc5)CC4)cc3N2)cc1 (stereo not given),4.5
27,COC(=O)C1=CN(CCc2ccccc2)C=C(C(=O)OC)C1c1ccc(Cl)cc1,8.8

row,Compound,displacement [%]
1,O=C(Nc1ccc2c(c1O)C(=O)c1ccccc1C2=O)c1ccccc1,12.7
2,C(=N\c1nc2ccccc2n1Cc1ccccc1)/c1cccs1,4.2
3,CC(C)CCn1c2ccccc2c2cc(CC(N)=O)ccc21,-5.8
4,O=C(/C=C/c1cccs1)Nc1ccc(N2CCOCC2)cc1,-1
5,COc1ccc(-c2nnc(SCC(=O)O)n2N)cc1,-1.4
6,COc1c(O)ccc(/C=N/NC(=O)COc2cccc(C)c2)c1[N+](=O)[O-],-1.1
7,O=C1ON=C(c2ccccc2)/C1=C\c1ccc(OCc2ccccc2)cc1,7.7
8,Cc1ccc(Nc2nc(-c3cccs3)cs2)cc1,-4.9
9,O=C(O)c1ccc(-c2cc([N+](=O)[O-])ccc2F)o1,-5.3
10,O=C(Cc1ccc(Cl)cc1)Nc1ccc(Nc2ccccc2)cc1,-3.8
11,Cn1c(=O)c(N)c2c3c(c(Br)ccc31)C(=O)c1ccccc1-2,159
12,COc1cccc(NC(=O)CN(c2ccc(F)cc2)S(=O)(=O)c2ccccc2)c1,4.5
13,CCN(CC)CCC(=O)N1c2ccccc2Sc2ccc(NC(=O)OC)cc21,0.2
14,CCCOC(=O)c1ccc(NC(=O)/C=C/c2ccc3c(c2)OCO3)cc1,-8.4
15,COc1ccc(OC)c(N(CC(=O)Nc2ccc(Cl)cc2)S(C)(=O)=O)c1,10.2
16,O=C1c2ccccc2CN1c1nccs1,-8.3
17,COCCCNC(=O)c1ccc(Cl)c([N+](=O)[O-])c1,5.3
18,CN1CCN(c2ccc(/C=c3\sc4nc5ccccc5n4c3=O)cc2[N+](=O)[O-])CC1,-6.3
19,Cc1ccc(/C(O)=C2/C(=O)C(=O)N(CCCCCC(=O)O)C2c2ccccc2)cc1 (stereo not given),-10.3
20,COc1ccc(OCC(=O)NCCOc2ccccc2)cc1,-0.8
21,CCCCOC(=O)c1cccc(NC(=O)c2ccc(Cl)cc2)c1,-2.5
22,CC(C)Oc1nc(-c2ccc(Br)cc2)nc2ccccc12,13.9
23,Cc1ccc(C(=O)NC23CCC4CC(CC(C4)C2)C3)cc1,9.1
24,CCOC(=O)C(=Cc1ccc(OCc2ccc([N+](=O)[O-])cc2)c(OC)c1)C(=O)OCC,3.9
